# Results: the supplement of paper PMC8728848
# This is one part of the list.
# How the values were obtained:
# Assay in all cases: glycan array binding signal (z-score within array); higher = stronger binding
# Conditions in all cases: glycan notation: IUPAC condensed, linker removed
# [1] = molecular target: GlcNAc(b1-3)Gal(b1-4)Glc
# In short: (§1)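 Glycan array data came from 3228 arrays in the Consortium for Functional Glycomics database, and only arrays with an available protein sequence were kept. Glycan names were put into IUPAC-condensed notation, and columns mapping to the same glycan were averaged. The binding signal is a within-array Z-score, averaged across arrays of one protein sequence run at different concentrations or buffers and across linkers. A negative Z-score can be read as non-binding.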
# [2] = molecular target: GlcNAc(b1-3)Gal(b1-4)GlcNAc
# In short: as §1
# [3] = molecular target: GlcNAc(b1-3)Gal(b1-4)GlcNAc(b1-2)Man(a1-3)[GlcNAc(b1-3)Gal(b1-4)GlcNAc(b1-2)Man(a1-6)]Man(b1-4)GlcNAc(b1-4)GlcNAc
# In short: as §1
# [4] = molecular target: GlcNAc(b1-3)Gal(b1-4)GlcNAc(b1-2)Man(a1-3)[GlcNAc(b1-3)Gal(b1-4)GlcNAc(b1-2)Man(a1-6)]Man(b1-4)GlcNAc(b1-4)[Fuc(a1-6)]GlcNAc
# In short: as §1
# [5] = molecular target: GlcNAc(b1-3)Gal(b1-4)GlcNAc(b1-2)[GlcNAc(b1-3)Gal(b1-4)GlcNAc(b1-6)]Man(a1-6)[GlcNAc(b1-3)Gal(b1-4)GlcNAc(b1-2)Man(a1-3)]Man(b1-4)GlcNAc(b1-4)GlcNAc
# In short: as §1
# [6] = molecular target: GlcNAc(b1-3)Gal(b1-4)GlcNAc(b1-3)Gal(b1-4)GlcNAc
# In short: as §1
# [7] = molecular target: GlcNAc(b1-3)Gal(b1-4)GlcNAc(b1-3)Gal(b1-4)GlcNAc(b1-2)Man(a1-3)[GlcNAc(b1-3)Gal(b1-4)GlcNAc(b1-3)Gal(b1-4)GlcNAc(b1-2)Man(a1-6)]Man(b1-4)GlcNAc(b1-4)GlcNAc
# In short: as §1
# [8] = molecular target: GlcNAc(b1-3)Gal(b1-4)GlcNAc(b1-3)Gal(b1-4)GlcNAc(b1-2)Man(a1-3)[GlcNAc(b1-3)Gal(b1-4)GlcNAc(b1-3)Gal(b1-4)GlcNAc(b1-2)Man(a1-6)]Man(b1-4)GlcNAc(b1-4)[Fuc(a1-6)]GlcNAc
# In short: as §1
# [9] = molecular target: GlcNAc(b1-3)Gal(b1-4)GlcNAc(b1-3)Gal(b1-4)GlcNAc(b1-2)[GlcNAc(b1-3)Gal(b1-4)GlcNAc(b1-3)Gal(b1-4)GlcNAc(b1-6)]Man(a1-6)[GlcNAc(b1-3)Gal(b1-4)GlcNAc(b1-3)Gal(b1-4)GlcNAc(b1-2)Man(a1-3)]Man(b1-4)GlcNAc(b1-4)[Fuc(a1-6)]GlcNAc
# In short: as §1
# [10] = molecular target: GlcNAc(b1-3)Gal(b1-4)GlcNAc(b1-3)Gal(b1-4)GlcNAc(b1-3)Gal(b1-4)GlcNAc(b1-2)Man(a1-3)[GlcNAc(b1-3)Gal(b1-4)GlcNAc(b1-3)Gal(b1-4)GlcNAc(b1-3)Gal(b1-4)GlcNAc(b1-2)Man(a1-6)]Man(b1-4)GlcNAc(b1-4)GlcNAc
# In short: as §1
# [11] = molecular target: GlcNAc(b1-3)Gal(b1-4)GlcNAc(b1-3)Gal(b1-4)GlcNAc(b1-3)Gal(b1-4)GlcNAc(b1-2)Man(a1-3)[GlcNAc(b1-3)Gal(b1-4)GlcNAc(b1-3)Gal(b1-4)GlcNAc(b1-3)Gal(b1-4)GlcNAc(b1-2)Man(a1-6)]Man(b1-4)GlcNAc(b1-4)[Fuc(a1-6)]GlcNAc
# In short: as §1
# [12] = molecular target: GlcNAc(b1-3)Gal(b1-4)GlcNAc(b1-3)Gal(b1-4)GlcNAc(b1-3)Gal(b1-4)GlcNAc(b1-2)[GlcNAc(b1-3)Gal(b1-4)GlcNAc(b1-3)Gal(b1-4)GlcNAc(b1-3)Gal(b1-4)GlcNAc(b1-6)]Man(a1-6)[GlcNAc(b1-3)Gal(b1-4)GlcNAc(b1-3)Gal(b1-4)GlcNAc(b1-3)Gal(b1-4)GlcNAc(b1-2)Man(a1-3)]Man(b1-4)GlcNAc(b1-4)[Fuc(a1-6)]GlcNAc
# In short: as §1
# [13] = molecular target: GlcNAc(b1-3)Gal(b1-4)GlcNAc(b1-3)Gal(b1-4)GlcNAc(b1-3)Gal(b1-4)GlcNAc(b1-3)Gal(b1-4)GlcNAc(b1-2)Man(a1-3)[GlcNAc(b1-3)Gal(b1-4)GlcNAc(b1-3)Gal(b1-4)GlcNAc(b1-3)Gal(b1-4)GlcNAc(b1-3)Gal(b1-4)GlcNAc(b1-2)Man(a1-6)]Man(b1-4)GlcNAc(b1-4)GlcNAc
# In short: as §1
# [14] = molecular target: GlcNAc(b1-3)Gal(b1-4)GlcNAc(b1-3)Gal(b1-4)GlcNAc(b1-3)Gal(b1-4)GlcNAc(b1-3)Gal(b1-4)GlcNAc(b1-2)Man(a1-3)[GlcNAc(b1-3)Gal(b1-4)GlcNAc(b1-3)Gal(b1-4)GlcNAc(b1-3)Gal(b1-4)GlcNAc(b1-3)Gal(b1-4)GlcNAc(b1-2)Man(a1-6)]Man(b1-4)GlcNAc(b1-4)[Fuc(a1-6)]GlcNAc
# In short: as §1
# [15] = molecular target: GlcNAc(b1-3)Gal(b1-4)GlcNAc(b1-3)Gal(b1-4)GlcNAc(b1-3)Gal(b1-4)GlcNAc(b1-3)Gal(b1-4)GlcNAc(b1-2)[GlcNAc(b1-3)Gal(b1-4)GlcNAc(b1-3)Gal(b1-4)GlcNAc(b1-3)Gal(b1-4)GlcNAc(b1-3)Gal(b1-4)GlcNAc(b1-6)]Man(a1-6)[GlcNAc(b1-3)Gal(b1-4)GlcNAc(b1-3)Gal(b1-4)GlcNAc(b1-3)Gal(b1-4)GlcNAc(b1-3)Gal(b1-4)GlcNAc(b1-2)Man(a1-3)]Man(b1-4)GlcNAc(b1-4)[Fuc(a1-6)]GlcNAc
# In short: as §1
# [16] = molecular target: GlcNAc(b1-3)Gal(b1-4)GlcNAc(b1-3)Gal(b1-4)GlcNAc(b1-3)GalNAc
# In short: as §1
# [17] = molecular target: GlcNAc(b1-3)Gal(b1-4)GlcNAc(b1-3)GalNAc
# In short: as §1
# [18] = molecular target: GlcNAc(b1-3)Gal(b1-4)GlcNAc(b1-3)[GlcNAc(b1-3)Gal(b1-4)GlcNAc(b1-3)]GalNAc
# In short: as §1
# [19] = molecular target: GlcNAc(b1-3)Gal(b1-4)GlcNAc(b1-6)[Gal(b1-3)]GalNAc
# In short: as §1
# [20] = molecular target: GlcNAc(b1-3)Gal(b1-4)GlcNAc(b1-6)[GlcNAc(b1-3)Gal(b1-3)]GalNAc
# In short: as §1
# [21] = molecular target: GlcNAc(b1-3)Gal(b1-4)GlcNAc(b1-6)[GlcNAc(b1-3)]Gal(b1-4)GlcNAc
# In short: as §1
# [22] = molecular target: GlcNAc(b1-3)GalNAc
# In short: as §1
# [23] = molecular target: GlcNAc(b1-3)Man
# In short: as §1
# [24] = molecular target: GlcNAc(b1-3)[GlcNAc(b1-4)][GlcNAc(b1-6)]GlcNAc
# In short: as §1
# [25] = molecular target: GlcNAc(b1-3)[GlcNAc(b1-6)]Gal(b1-4)GlcNAc
# In short: as §1
# [26] = molecular target: GlcNAc(b1-3)[GlcNAc(b1-6)]GalNAc
# In short: as §1
# [27] = molecular target: GlcNAc(b1-4)Gal(b1-4)GlcNAc
# In short: as §1
# [28] = molecular target: GlcNAc(b1-4)GlcNAc
# In short: as §1
# [29] = molecular target: GlcNAc(b1-4)GlcNAc(b1-4)GlcNAc
# In short: as §1
# [30] = molecular target: GlcNAc(b1-4)GlcNAc(b1-4)GlcNAc(b1-4)GlcNAc(b1-4)GlcNAc
# In short: as §1
# [31] = molecular target: GlcNAc(b1-4)GlcNAc(b1-4)GlcNAc(b1-4)GlcNAc(b1-4)GlcNAc(b1-4)GlcNAc
# In short: as §1
# [32] = molecular target: GlcNAc(b1-4)[GlcNAc(b1-6)]GalNAc
# In short: as §1
# [33] = molecular target: GlcNAc(b1-6)Gal(b1-4)GlcNAc
# In short: as §1
# [34] = molecular target: GlcNAc(b1-6)GalNAc
# In short: as §1
# [35] = molecular target: GlcNAc3Prop(b1-4)GlcNAc
# In short: as §1
# [36] = molecular target: GlcNAc6S(b1-3)Gal(b1-4)GlcNAc
# In short: as §1
# [37] = molecular target: Kdn(a2-3)Gal(b1-3)GalNAc
# In short: as §1
# [38] = molecular target: Kdn(a2-3)Gal(b1-3)GlcNAc
# In short: as §1
# [39] = molecular target: Kdn(a2-3)Gal(b1-4)Glc
# In short: as §1
# [40] = molecular target: Kdn(a2-3)Gal(b1-4)GlcNAc
# In short: as §1
# [41] = molecular target: Kdn(a2-3)Gal(b1-4)[Fuc(a1-3)]GlcNAc
# In short: as §1
# [42] = molecular target: Kdn(a2-6)Gal(b1-4)GlcNAc
# In short: as §1
# [43] = molecular target: Man(a1-2)Man(a1-2)Man(a1-3)Man
# In short: as §1
# [44] = molecular target: Man(a1-2)Man(a1-2)Man(a1-6)[Man(a1-3)]Man
# In short: as §1
# [45] = molecular target: Man(a1-2)Man(a1-3)Man
# In short: as §1
binder,measurement,setting,value
"AAL (Agrocybe aegerita), Q6WY08 (protein) MQGVNIYNISAGTSVDLAAPVTTGDIVTFFSSALNLNAGAGNPNNTTLNLFAENGAYLLHIAFRLQENVIIFNSRQPDGPWLVEQRVSDVANQFAGIDGKAMVTVFDHGDKYQVVINEKTVIQYTKQISGLTLSLSYNATEETSIFSTVVEAVTYTGLALEHHHHHH",glycan array binding signal (z-score),[1],-0.152
same,glycan array binding signal (z-score),[2],-0.139
same,glycan array binding signal (z-score),[3],-0.126
same,glycan array binding signal (z-score),[4],-0.118
same,glycan array binding signal (z-score),[5],-0.091
same,glycan array binding signal (z-score),[6],-0.164
same,glycan array binding signal (z-score),[7],-0.13
same,glycan array binding signal (z-score),[8],-0.094
same,glycan array binding signal (z-score),[9],-0.128
same,glycan array binding signal (z-score),[10],-0.127
same,glycan array binding signal (z-score),[11],-0.085
same,glycan array binding signal (z-score),[12],-0.05
same,glycan array binding signal (z-score),[13],-0.085
same,glycan array binding signal (z-score),[14],-0.141
same,glycan array binding signal (z-score),[15],-0.114
same,glycan array binding signal (z-score),[16],-0.123
same,glycan array binding signal (z-score),[17],-0.146
same,glycan array binding signal (z-score),[18],-0.12
same,glycan array binding signal (z-score),[19],-0.134
same,glycan array binding signal (z-score),[20],-0.145
same,glycan array binding signal (z-score),[21],-0.163
same,glycan array binding signal (z-score),[22],-0.155
same,glycan array binding signal (z-score),[23],-0.138
same,glycan array binding signal (z-score),[24],-0.149
same,glycan array binding signal (z-score),[25],-0.164
same,glycan array binding signal (z-score),[26],-0.158
same,glycan array binding signal (z-score),[27],-0.158
same,glycan array binding signal (z-score),[28],-0.145
same,glycan array binding signal (z-score),[29],-0.153
same,glycan array binding signal (z-score),[30],-0.16
same,glycan array binding signal (z-score),[31],-0.152
same,glycan array binding signal (z-score),[32],-0.149
same,glycan array binding signal (z-score),[33],-0.159
same,glycan array binding signal (z-score),[34],-0.149
same,glycan array binding signal (z-score),[35],-0.159
same,glycan array binding signal (z-score),[36],-0.144
same,glycan array binding signal (z-score),[37],-0.132
same,glycan array binding signal (z-score),[38],-0.135
same,glycan array binding signal (z-score),[39],-0.138
same,glycan array binding signal (z-score),[40],0.108
same,glycan array binding signal (z-score),[41],-0.136
same,glycan array binding signal (z-score),[42],-0.155
same,glycan array binding signal (z-score),[43],-0.151
same,glycan array binding signal (z-score),[44],-0.142
same,glycan array binding signal (z-score),[45],-0.157
